This is one part of the list.

In this experiment the target is T1, OsWOX13 (Oryza sativa, UniProt Q5QMM3 1-267).
T1 sequence: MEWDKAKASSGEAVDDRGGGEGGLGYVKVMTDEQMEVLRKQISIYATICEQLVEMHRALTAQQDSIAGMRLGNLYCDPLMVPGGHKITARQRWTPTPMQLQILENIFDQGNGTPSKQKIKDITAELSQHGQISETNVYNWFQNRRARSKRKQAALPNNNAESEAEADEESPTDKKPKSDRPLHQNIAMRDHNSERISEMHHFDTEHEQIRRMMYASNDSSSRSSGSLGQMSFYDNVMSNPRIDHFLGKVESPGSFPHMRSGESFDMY
Briefly: protein-binding microarray (RPBM); PBS, 2% BSA, 51.3 ng/ul salmon testes DNA, 50 uM zinc acetate, 200 nM TF, 25 C, 1 h; high values mean tight binding. The following applies: protein: recombinant; tags: N-terminal polyhistidine and DsRed monomer fusion (pET32a); label: CyDye5-dUTP incorporated in the synthesized complementary strand; 3' TTTTT single-stranded linker to array surface; dsDNA, one strand shown. An outline of the steps: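 Polyhistidine-tagged DsRed fusions of transcription factors, joined at the N-terminus, were expressed in E. coli BL21-CodonPlus and isolated on Ni–NTA. They were incubated at 200 nM for 1 h at 25 °C on a custom Agilent array, double-stranded and BSA-blocked, in PBS with 2% BSA, salmon testes DNA and 50 µM zinc acetate. The binding signal is per-feature fluorescence intensity (arbitrary units) read on an Axon 4000B scanner after washing.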
As to “GAGAAATTAAATCACCTTGAATGTTACAAAATTAAGGAGTCGGAGTCACCTAGTGCAG”, the binding signal was 10200 fluorescence intensity (a.u.).
With “CATTCAATTTAAGTGTGAGGTATTATATACAGTATAGCATCGGAGTCACCTAGTGCAG”, the binding signal was 3980 fluorescence intensity (a.u.).
Take “CCATGTACTTTGATTACCATGATACGATCATTTGATAATGCGGAGTCACCTAGTGCAG”: the binding signal is 5770 fluorescence intensity (a.u.).
Under “GATATTTAATTATTTACACTCTTTAATTATTCCATATCTTCGGAGTCACCTAGTGCAG” stands 20900 fluorescence intensity (a.u.); under “ATATAATTTATTTTGAACGATTTGCACAAGACGGTGTGAACGGAGTCACCTAGTGCAG”, 34400 fluorescence intensity (a.u.); under “TACATATAATTGAGGGAGCCAACGTGGACTTATTCCTTTTCGGAGTCACCTAGTGCAG”, 15700 fluorescence intensity (a.u.).
For the sequence “TTTGAATGATTTTCTCCAAATTTTGGTCAAATTTACTGTTCGGAGTCACCTAGTGCAG”, the binding signal is 39400 fluorescence intensity (a.u.).
Turning to “TCTAAATTTATACAGTGTTAGTTGTACTGTTTTCTATAGGCGGAGTCACCTAGTGCAG”, the binding signal was 23600 fluorescence intensity (a.u.).
Take “CTGTAAGATTAATCAGCTTAATTAGCAGCTATAACTAGCTCGGAGTCACCTAGTGCAG”: the binding signal was 20500 fluorescence intensity (a.u.).
As to “CATAATTTTCGTGTTTGTCCAACATGACATCATTTTCTTGCGGAGTCACCTAGTGCAG”, the binding signal is 16200 fluorescence intensity (a.u.).
As for “AGGTATTTTGCCAATCATCTGCATGCAAGTTATGAGGTCTCGGAGTCACCTAGTGCAG”, the binding signal was 11100 fluorescence intensity (a.u.).
Under “ATAAGTACTCGGTTTGTTGATTGGTTCGTGCGCGACAGCACGGAGTCACCTAGTGCAG” stands 14100 fluorescence intensity (a.u.).
Consider “CCCCTCTGTTCTAATTAGAACCGGCACTAATCAAATCCAACGGAGTCACCTAGTGCAG”, for which the binding signal is 8470 fluorescence intensity (a.u.).
Under “GTTTAGACAGCTCCACAACTCCACTCCAGACTCAACTCCTCGGAGTCACCTAGTGCAG” stands 4110 fluorescence intensity (a.u.).
In the case of “GCCCTGATTATATAATCTTCCTCGTTAATCACAGTTTCTACGGAGTCACCTAGTGCAG”, the binding signal is 35400 fluorescence intensity (a.u.).
Under “CAATTTAATTTACTCTCTCCTGCATATGCCAAATGCTTCTCGGAGTCACCTAGTGCAG” stands 8430 fluorescence intensity (a.u.).
The figure for “AATAATAATAATAAATTGCCTACCAGCAACACTGCAAGTCCGGAGTCACCTAGTGCAG” is 5300 fluorescence intensity (a.u.); for “TCAAAATTATGTTTCAGATTCAAATTTTGGTATCGGTGTACGGAGTCACCTAGTGCAG” it is 15100 fluorescence intensity (a.u.).
With “TAATCCAGTTTAGTTAACTAATTAATTCCCTAAAATGCTACGGAGTCACCTAGTGCAG”, the binding signal is 21600 fluorescence intensity (a.u.).
The figure for “CGGACAACGTGACTGGCTTCCGTCGAAAACGTTACATTGACGGAGTCACCTAGTGCAG” is 3480 fluorescence intensity (a.u.); for “ATGTAATTTGACATGAGGTCAGGTGCTAATGTGTAAAATGCGGAGTCACCTAGTGCAG” it is 26600 fluorescence intensity (a.u.).
“AATGTTAATTAGTATTGGTAGTATTACAGCTAACTGACAGCGGAGTCACCTAGTGCAG”: the binding signal is 22300 fluorescence intensity (a.u.).
Under “AGGCAAATTATATGTCAGCAAAACTTATTGACCATCTGTCCGGAGTCACCTAGTGCAG” stands 6350 fluorescence intensity (a.u.); under “AAATGAGATGACAATGATGATGATGATGGTTTCATCACCCCGGAGTCACCTAGTGCAG”, 4620 fluorescence intensity (a.u.).
As for “AATTAATTATGGTATGTGATACTTTTCTCAATACGTAATACGGAGTCACCTAGTGCAG”, the binding signal is 26400 fluorescence intensity (a.u.).
As for “GTACAGTAACTCCTAATTAATGTTCTTGCTTCATCACACTCGGAGTCACCTAGTGCAG”, the binding signal was 8120 fluorescence intensity (a.u.).
With “CTGTAATTGCACTGGAAATTCGTATAGTGGCACTGGAAAACGGAGTCACCTAGTGCAG”, the binding signal was 12600 fluorescence intensity (a.u.).
Under “GTCATTTAAAACCAATCACATCGCCTCTTGTGCCATTATCCGGAGTCACCTAGTGCAG” stands 6340 fluorescence intensity (a.u.).
The figure for “TAAATAAATTATTCTATCTTGGATATGTTAGATATACATACGGAGTCACCTAGTGCAG” is 18700 fluorescence intensity (a.u.); for “AGCGCAACTAATTAAACTAGGCTTATCAGGCGACAGCGGCCGGAGTCACCTAGTGCAG” it is 4920 fluorescence intensity (a.u.); for “TTTATCTATAACTGCAATTATAAATACTATGGCACATAGTCGGAGTCACCTAGTGCAG” it is 5660 fluorescence intensity (a.u.).
The figure for “AACCAATCACTCGATATATGACTAATTCTTCTGGAGTTGTCGGAGTCACCTAGTGCAG” is 26500 fluorescence intensity (a.u.); for “GGCCGGCGGGTGGCCGGGTGGGGAGGAGGTCGGCAGGGCGCGGAGTCACCTAGTGCAG” it is 3810 fluorescence intensity (a.u.); for “CAAATTTAAATTTGAATCGGGTATGTAAACTTTTGACTTACGGAGTCACCTAGTGCAG” it is 15200 fluorescence intensity (a.u.).
“GACAAGAGGGTAGTAAATTGATTACTATTTAGTTGTTCTGCGGAGTCACCTAGTGCAG”: the binding signal was 10100 fluorescence intensity (a.u.).
The figure for “GATTGATTGGATAGAGCTCCTACCAATCCACTTTCTTGTTCGGAGTCACCTAGTGCAG” is 34400 fluorescence intensity (a.u.); for “GTTTAATTATTTAATGTTATCTTCAATATTAGACTATGGCCGGAGTCACCTAGTGCAG” it is 43100 fluorescence intensity (a.u.).
The figure for “ACCAAATTAATTTATTAAACATAAAATTGAATATATTTTGCGGAGTCACCTAGTGCAG” is 46500 fluorescence intensity (a.u.); for “GATTAATTAATTATTATCCATTGTACACTTCGAAAATTGGCGGAGTCACCTAGTGCAG” it is 60500 fluorescence intensity (a.u.).
The figure for “TTGATAGGAACTTTATTGGAGCTCCACGAATCTCCCAGGCCGGAGTCACCTAGTGCAG” is 5980 fluorescence intensity (a.u.).
Regarding “CCTAAATTTTGATAGCAGAATCGTATTGTCACTTTACATACGGAGTCACCTAGTGCAG”, the binding signal is 9530 fluorescence intensity (a.u.).
Take “AAACATTAATTTATTCGTCTTCCGTAGACTGCAATAGTCGCGGAGTCACCTAGTGCAG”: the binding signal is 29400 fluorescence intensity (a.u.).

The values are drawn from paper PMC7819943, “Rice protein-binding microarrays: a tool to detect cis-acting elements near promoter regions in rice”.
